Assay results: article PMC12040169 (PLOS Biology, 2025)
Some of the results follow.

Each molecule was assayed on T1, C. trachomatis L2/434/Bu expressing GFP (CTL2-GFP). Settings: total inclusion area; 28.5 h, 10 µM; inhibitor.
T1 construct: L2/434/Bu GFP intracellular growth in HeLa cells
Parameters: species or system HeLa; C. trachomatis total inclusion area by high-content imaging, normalised to DMSO
Method in brief: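 High-content imaging followed the bulk GFP/resorufin measurement: fixed, Hoechst-stained cells were scored for GFP inclusions and host nuclei per well. Total inclusion area and count served as growth proxies, nuclei number as the viability proxy. MIC calculation matched the bulk assay.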
O=C(CN1CCCC2(CCN(C(=O)Cc3c[nH]c4ccccc34)C2)C1)Nc1ncccn1 (stereo not drawn) [CBK132048] was tested, and the “% of control remaining” value was 80.7761. For O=C1C(c2ccccc2)=C(c2ccccc2)C(c2ccc(C3=C(c4ccccc4)C(=O)C(c4ccccc4)=C3c3ccccc3)cc2)=C1c1ccccc1 [CBK261220], the “% of control remaining” value was 98.6252. O=C(O)c1ccc(CNC(=O)c2cnc(-c3ccc(F)cc3)c(-c3ccc(O)cc3)c2)cc1 [CBK037996] was tested, and the “% of control remaining” value was 116.125. For Cc1cc(OC(F)(F)F)ccc1S(=O)(=O)Nc1nc(CC(=O)O)cs1 [CBK000575], the “% of control remaining” value was 83.327. In the case of COC(=O)[C@H](CC1CCCCC1)NS(=O)(=O)c1ccc(C(C)C)cc1 [CBK044551], the “% of control remaining” value is reported as 88.1809. With CCOC(=O)Cn1nc(CC)n2c(cc3ccsc32)c1=O [CBK284133] the “% of control remaining” value was 66.602. With CCn1cncc1CN1CCCC(O)(c2ccc(F)cc2)CC1 (stereo not drawn) [CBK284838] the “% of control remaining” value was 104.018. For NC(=O)[C@@H]1C[C@@H](O)[C@H](O)[C@H]2[C@@H]1N(c1ccccc1)C(=S)N2Cc1ccc(F)cc1 [CBK288928], the “% of control remaining” value was 136.869. In the case of O=C(c1nn2c(c1Br)NC(c1cccs1)CC2C(F)(F)F)N1CCCC1 (stereo not drawn) [CBK307180], the “% of control remaining” value is reported as 99.3908. CCCC/C=C/c1ccc(N2CCN(CCN(C)C)CC2)nc1 [CBK036980] was tested, and the “% of control remaining” value was 114.798. For O=C(Nc1ccc2n(c1=O)C[C@H]1C[C@@H]2CN(C(=O)Cc2cccs2)C1)c1ccco1 [CBK289204], the “% of control remaining” value was 84.2339. In the case of CCOc1cc(/C=N/O)ccc1OC(=O)c1cccc([N+](=O)[O-])c1 [CBK090036], the “% of control remaining” value is reported as 80.9157. In the case of O=C(CCC1CCCC1)N1C[C@@H]2CCCCN(CC3CC3)[C@@H]2C1 [CBK285531], the “% of control remaining” value is reported as 92.4204. CCn1cc(C(=O)O)c(=O)c2cc(F)c(N3CCN(C(=S)Nc4cccc5ccccc45)CC3)cc21 [CBK265809] was tested, and the “% of control remaining” value was 81.0008. In the case of COc1cc(C(=O)Nc2ccc(-c3nc4ncccc4o3)cc2)ccc1OCc1ccc(Cl)cc1 [CBK033914], the “% of control remaining” value is reported as 95.6578. COC(=O)COc1nccnc1-c1ccc(OC(F)(F)F)cc1 [CBK106849] was tested, and the “% of control remaining” value was 99.5861. Cc1ccc(S(=O)(=O)N2CCN(CCC(=O)O)CC2)cc1 [CBK269443] was tested, and the “% of control remaining” value was 99.2419. In the case of Cc1cc(Cl)c(S(=O)(=O)N2CC(C)OC(C)C2)cc1OCC(N)=O (stereo not drawn) [CBK266452], the “% of control remaining” value is reported as 95.5001. CSCCCNC(=O)c1cc(-c2ccc(C(=O)N3CCOCC3)cc2)cnc1N [CBK158568] was tested, and the “% of control remaining” value was 87.9256. With Cc1nc2sc(C(=O)OCc3cc(=O)oc4cc5c(cc34)CCC5)c(C)c2c(=O)[nH]1 [CBK297528] the “% of control remaining” value was 77.2455. In the case of CCN(CC)CCCCC1(C)SC(NC2CCCCCC2)=NC1=O (stereo not drawn) [CBK113257], the “% of control remaining” value is reported as 57.7057. In the case of CC(C)(CO)CNc1nc(-c2cccnc2)cnc1N [CBK063475], the “% of control remaining” value is reported as 110.071. For COc1cnc(-c2ccccc2OC)c(NC(=O)Cc2ccccc2)n1 [CBK145260], the “% of control remaining” value was 108.393. In the case of c1cc(-c2cncc(-c3ccsc3)n2)cs1 [CBK113356], the “% of control remaining” value is reported as 110.597. In the case of COc1ccc(C(=O)NCc2ccc(S(N)(=O)=O)cc2)cc1[N+](=O)[O-] [CBK263629], the “% of control remaining” value is reported as 88.5062. For c1ccc(-c2nc(-c3ccncc3)sc2-c2ccccc2)cc1 [CBK291203], the “% of control remaining” value was 78.8011. In the case of Cc1ccc(CN(CCCn2ccnc2)Cc2nc3ccccc3[nH]2)o1 [CBK283103], the “% of control remaining” value is reported as 93.8087. In the case of COC(=O)CCCC(=O)n1c(=O)n(CC2CCCCC2)c2ccccc21 [CBK106524], the “% of control remaining” value is reported as 90.1475. For CCOC(=O)C1(Cc2cc(-c3cccc(F)c3)no2)CCNCC1 [CBK284881], the “% of control remaining” value was 93.6648. With O=C(O)C1CC=CCC1C(=O)NCCCCc1ccccc1 (stereo not drawn) [CBK265460] the “% of control remaining” value was 84.0478. With CC(C)(C)c1cc(C(=O)CSc2nnc(Nc3ccccc3)n2-c2ccccc2)cc(C(C)(C)C)c1O [CBK261033] the “% of control remaining” value was 88.5793. For CC1(C)OC2C(C(=O)O)OC(n3cnc4c(N)ncnc43)C2O1 (stereo not drawn) [CBK262912], the “% of control remaining” value was 114.629. With Cc1ccc(C2=CCN(CC(=O)N(C)C3CCCCC3)CC2)o1 [CBK283633] the “% of control remaining” value was 114.015. For O=C(Nc1ccc(Oc2cccnc2)cc1)C1CCCN1 (stereo not drawn) [CBK282498], the “% of control remaining” value was 95.0992. With CCn1ncnc1CN1CCOc2ccc(CO)cc2C1 [CBK307245] the “% of control remaining” value was 32.681. For CN1CCC(N(C)C(=O)c2ccc(-c3ccccc3CO)cc2)C1 (stereo not drawn) [CBK307432], the “% of control remaining” value was 87.267. In the case of Cc1cc(NC(=O)C2CC2)sc1C(=O)NC(C)c1ccc(F)cc1F (stereo not drawn) [CBK296625], the “% of control remaining” value is reported as 89.8546. With Brc1ccc(OCCCCCCN2CCCCC2)cc1 [CBK261784] the “% of control remaining” value was 93.7738. With COc1cncc(C(NC(=O)Cn2ccccc2=O)[C@H]2C[C@@H](O)C2)c1 (stereo partly drawn) [CBK307557] the “% of control remaining” value was 59.7822. Cc1nc2n(CC#N)c3ccccc3n2n1 [CBK062670] was tested, and the “% of control remaining” value was 106.859. In the case of CCN1CCN(c2ccc(-c3ccc(OCC4CCN(C(=O)OC(C)(C)C)CC4)cn3)cn2)CC1 [CBK174505], the “% of control remaining” value is reported as 106.33. For CCSc1nnc2c(n1)OC(C1CC=C(C)CC1)Nc1ccccc1-2 (stereo not drawn) [CBK262367], the “% of control remaining” value was 105.786. With COc1cc(NC(=O)c2cc3nc(-c4cccs4)cc(C(F)(F)Cl)n3n2)c(C(C)=O)cc1OC [CBK268312] the “% of control remaining” value was 109.776. In the case of O=C(c1ccc2ncccc2c1)N1CCC2(CCN(C(=O)c3cc(F)c(F)cc3F)C2)C1 (stereo not drawn) [CBK131391], the “% of control remaining” value is reported as 106.957. For Cc1ccc(/N=N/c2c(O)c(C(=O)Nc3ccc4c(c3)c(=O)[nH]c3ccccc34)cc3ccccc23)c(Cl)c1 [CBK262306], the “% of control remaining” value was 106.777. For CCCn1nnnc1NCc1cccc(Cl)c1 [CBK288130], the “% of control remaining” value was 84.3458. C=CCNC(=O)C1CCN(c2nc3ccccc3n2CC)CC1 [CBK283920] was tested, and the “% of control remaining” value was 68.0627. O=C(Nc1ccccc1)NC(N1CCOCC1)C(Cl)(Cl)Cl (stereo not drawn) [CBK261293] was tested, and the “% of control remaining” value was 97.376. COc1ccc(N2CCN(C(=S)c3ccc(OCC(N)=O)cc3)CC2)cc1 [CBK269190] was tested, and the “% of control remaining” value was 88.556. For CC(=O)NS(=O)(=O)c1ccc(NC(=O)CCSc2ccc(C)cc2)cc1 [CBK296141], the “% of control remaining” value was 61.4094. For Cn1nccc1NS(=O)(=O)c1ccc(Br)cc1C(F)(F)F [CBK062082], the “% of control remaining” value was 99.8849. In the case of O=C(NC(Cc1ccc(O)cc1)C(=O)O)c1ccccc1 (stereo not drawn) [CBK260937], the “% of control remaining” value is reported as 101.59. In the case of CC(Cn1nnc2ccccc21)C(=O)O (stereo not drawn) [CBK264727], the “% of control remaining” value is reported as 93.386. With O=C(O)c1c2c(nc3ccccc13)CCN(Cc1ccccc1)C2 [CBK286805] the “% of control remaining” value was 119.916. For O=C(CCc1ccncc1)N1CCC(c2cc3ncccc3[nH]2)CC1 [CBK284460], the “% of control remaining” value was 110.348. In the case of O=S(=O)(Nc1nn(Cc2ccc(C(F)(F)F)cc2)c2ccccc12)c1cccc2nsnc12 [CBK048086], the “% of control remaining” value is reported as 97.8486. CC1CCN(C(=O)C[C@@H]2O[C@H](CNS(=O)(=O)c3ccccc3)[C@@H](O)[C@H]2O)CC1 [CBK288927] was tested, and the “% of control remaining” value was 80.3133. With Cc1ccn(CCC(=O)NC(C)c2cccnc2)n1 (stereo not drawn) [CBK282197] the “% of control remaining” value was 90.2123. For O=C(CC[C@@H]1CNC(=O)[C@@H]2C[C@H](NC(=O)C3CC3)CN12)Nc1ccccc1 [CBK289006], the “% of control remaining” value was 102.01. For CN(CCc1cnn(C)c1)C(=O)NCCCN1CCCC1=O [CBK307008], the “% of control remaining” value was 77.2333. For Cn1c(OCc2cccnc2)nc2c1c(=O)n(Cc1ccc(Cl)c(Cl)c1)c(=O)n2C [CBK267498], the “% of control remaining” value was 93.6228. O=C1NC2(CCCN(C(=O)c3cccs3)C2)Oc2ccccc21 (stereo not drawn) [CBK284799] was tested, and the “% of control remaining” value was 122.716. For O=C(NCCN1CCC(O)(c2cccc(F)c2)CC1)C1CCCCC1 [CBK283281], the “% of control remaining” value was 108.838. For Cc1cccc(OCC2CCCN(C(=O)CCc3nncn3C)C2)c1 (stereo not drawn) [CBK306640], the “% of control remaining” value was 98.4592. For Cc1nc2c(-c3ccccc3)cnn2c(N2CCCC2)c1C [CBK287799], the “% of control remaining” value was 101.241. With COCCn1c(SCc2nc3ccccc3nc2C)nc(C)c1C [CBK305651] the “% of control remaining” value was 55.9024. In the case of O=C(NC1CC1)[C@@H]1C=CCN1S(=O)(=O)c1ccccc1Cl [CBK285479], the “% of control remaining” value is reported as 91.4426. COc1ccc(OCc2nc(-c3cccs3)no2)cc1 [CBK269782] was tested, and the “% of control remaining” value was 74.9034. For COc1ccc(-c2nnc3[nH]c(=O)n(C)c(=O)c3n2)cc1OC [CBK263914], the “% of control remaining” value was 93.7338. For c1ccc(OCCOc2ccc(N3CCNCC3)nn2)cc1 [CBK022577F], the “% of control remaining” value was 9.357. In the case of O=c1c2ccccc2nc2n1CCN(Cc1cc(F)ccc1F)CC2 [CBK284818], the “% of control remaining” value is reported as 109.906. In the case of O=[N+]([O-])c1ccccc1S(=O)(=O)N1CCN(c2ccccc2)CC1 [CBK261755], the “% of control remaining” value is reported as 103.687. For CCc1nnc2sc(-c3ccc(C)c(NC(=O)c4ccc(N5CCCCC5)c([N+](=O)[O-])c4)c3)nn12 [CBK268476], the “% of control remaining” value was 94.9819. In the case of S=C(NNC(=S)Nc1ccc(Cl)c(Cl)c1)Nc1cccnc1 [CBK268483], the “% of control remaining” value is reported as 78.0902. In the case of O=C(c1ncc(F)cc1F)N1CCCCC1CN1CCOCC1 (stereo not drawn) [CBK305482], the “% of control remaining” value is reported as 116.494. With CCN(CC)CCN1CCN(c2cc(-c3ccc(OC(F)(F)F)cc3)ncn2)CC1 [CBK037756] the “% of control remaining” value was 152.305. For CCCn1c(SCC(=O)N2CCOCC2)nc2cc(Cl)ccc2c1=O [CBK306482], the “% of control remaining” value was 90.4177. In the case of COc1cc(OC)cc(C(=O)Nc2ccc(C(=O)c3ccccc3)cc2)c1 [CBK098732], the “% of control remaining” value is reported as 79.9418.
